Test results: the supplement of paper PMC4604168 (melanoma cell lines)
This is one part of the list. Repeats are few or missing, and single values can be far off.

System: SkMel30
Assay: cell count relative to DMSO control; melanoma cells; higher = more viable cells
Conditions: library dose: low library concentration; 72 h
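Further: cell number obtained by counting DAPI-stained nuclei in high-throughput microscope images with image analysis software, screen run in 1,536-well plates.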

SMILES | cell count [%]
CC(=O)c1c(C)c2cnc(Nc3ccc(N4CCNCC4)cn3)nc2n(C2CCCC2)c1=O [palbociclib] + CO[C@@H]1[C@H](N(C)C(=O)c2ccccc2)C[C@H]2O[C@]1(C)n1c3ccccc3c3c4c(c5c6ccccc6n2c5c31)C(=O)NC4 [Midostaurin] (first compound 0.04 µM, partner dose 0.08 µM) | 63.9
Nc1ncn([C@H]2C[C@H](O)[C@@H](CO)O2)c(=O)n1 [decitabine] + CO[C@@H]1[C@H](N(C)C(=O)c2ccccc2)C[C@H]2O[C@]1(C)n1c3ccccc3c3c4c(c5c6ccccc6n2c5c31)C(=O)NC4 [Midostaurin] (first compound 0.1 µM, partner dose 0.08 µM) | 129
CC(=O)c1c(C)c2cnc(Nc3ccc(N4CCNCC4)cn3)nc2n(C2CCCC2)c1=O [palbociclib] + O=C(O)C(=O)Nc1sc2c(c1C(=O)O)CCNC2 [TCS401] (first compound 0.04 µM, partner dose 1.66667 µM) | 64
Nc1nc(F)nc2c1ncn2[C@@H]1O[C@H](CO)[C@@H](O)[C@@H]1O [fludarabine] + CN(C)S(=O)(=O)c1ccc2c(c1)/C(=C/c1cc3c([nH]1)CCCC3)C(=O)N2 [SU6656] (first compound 0.2 µM, partner dose 0.4 µM) | 14.7
Nc1nc(F)nc2c1ncn2[C@@H]1O[C@H](CO)[C@@H](O)[C@@H]1O [fludarabine] + Cc1ccc(NC(=O)c2cccc(N(C)C)c2)cc1NC(=O)c1ccc(O)cc1 [ZM336372] (first compound 0.2 µM, partner dose 2 µM) | 10.5
Nc1ncn([C@H]2C[C@H](O)[C@@H](CO)O2)c(=O)n1 [decitabine] + c1cc(-c2cnn3cc(-c4ccc(OCCN5CCCCC5)cc4)cnc23)ccn1 [Dorsomorphin] (first compound 0.1 µM, partner dose 0.4 µM) | 87.3
Nc1nc(F)nc2c1ncn2[C@@H]1O[C@H](CO)[C@@H](O)[C@@H]1O [fludarabine] + COc1cc2ncnc(Nc3ccc(Oc4ccccc4)cc3)c2cc1OC [SrcI1] (first compound 0.2 µM, partner dose 2 µM) | 21.2
Nc1ccn([C@@H]2O[C@H](CO)[C@@H](O)C2(F)F)c(=O)n1 [gemcitabine] + O=C(Nc1cccc(Cl)c1)Nc1ncc(CCNc2ncnc3ccsc23)s1 [SNS314] (first compound 0.0004 µM, partner dose 0.0008 µM) | 113
Nc1nc(F)nc2c1ncn2[C@@H]1O[C@H](CO)[C@@H](O)[C@@H]1O [fludarabine] + C#Cc1cccc(Nc2ncnc3cc(OCCOC)c(OCCOC)cc23)c1 [erlotinib] (first compound 0.2 µM, partner dose 0.8 µM) | 24.4
Nc1nc(F)nc2c1ncn2[C@@H]1O[C@H](CO)[C@@H](O)[C@@H]1O [fludarabine] + COc1cc(N2CCC(N3CCN(C)CC3)CC2)ccc1Nc1ncc(Cl)c(Nc2ccccc2S(=O)(=O)C(C)C)n1 [NVP-TAE684] (first compound 0.2 µM, partner dose 0.08 µM) | 16.9
CC(=O)c1c(C)c2cnc(Nc3ccc(N4CCNCC4)cn3)nc2n(C2CCCC2)c1=O [palbociclib] + C=CCn1c(=O)c2cnc(Nc3ccc(N4CCN(C)CC4)cc3)nc2n1-c1cccc(C(C)(C)O)n1 [MK1775] (first compound 0.04 µM, partner dose 0.02 µM) | 53
